Experimental data published in PubChem BioAssay (Tox21).
“And” between values parts separate entries of the source, which are not always exact repeats. Identical values can stand only once. Inconclusive results, whose numbers are uncertain, are shown with a selection of clear calls. A potency beside an inconclusive call is a rough fit, not a confirmed value. The source holds several records for some structures; these can differ, active in one and inactive in another. The source made the active and inactive calls. The call rests on the fitted dose curve; in most records, active means well fitted curve in the direction sought with a large enough effect in the repeat runs; inconclusive means weak or mixed curves; inactive means no such curve, though single readings can be large; an effect the other way counts as inactive or inconclusive.

Test system: not listed separately
Experiment: qHTS assay to identify small molecule antagonists of the estrogen receptor alpha (ER-alpha) signaling pathway using the BG1 cell line - cell viability counter screen (AID 743081);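 further: compound given together with 17beta-estradiol as the ER stimulus; nearly all actives have a fitted effect of over 45% in size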; on activity change, negative = cytotoxicity: on the % scale 0 is the no-effect control and ±100 the full control effect
Settings: BG1Luc4E2 viability, CellTiter-Fluor, 22 h; series mostly up to 70.3 µM
Potency means the concentration at half of the fitted maximal effect; tags describe the fitted curve by direction and shape.

Question: Which Potency does the source give for `CCCCCCCCCCCCOCC1CO1` (stereo unspecified) here?
Answer: inconclusive: 68.7 µM [cytotoxic, single point] and inactive

Question: For `O=C1CN(/N=C/c2ccc([N+](=O)[O-])o2)C(=O)N1`, which Potency is on record?
Answer: inconclusive: 26.6 µM [cytotoxic, partial curve] and active: 43.1 µM and inconclusive: 48.6 µM [cytotoxic, partial curve]

Question: Which Potency does the source give for `O=C(Nc1ccccc1SSc1ccccc1NC(=O)c1ccccc1)c1ccccc1` here?
Answer: inconclusive: 77 µM [cytotoxic, partial curve, poor fit]

Question: For `S=P(N1CC1)(N1CC1)N1CC1`, which Potency is on record?
Answer: inconclusive: 24.3 µM [cytotoxic, single point]

Question: For `NC(=O)N/N=C/c1ccc([N+](=O)[O-])o1`, which Potency is on record?
Answer: inconclusive: 23.7 µM [cytotoxic, partial curve] and active: 54.5 µM

Question: For `O=C(COc1ccc(Cl)cc1)N1CCN(Cc2ccc3c(c2)OCO3)CC1`, which Potency is on record?
Answer: inconclusive: 61.1 µM [cytotoxic, partial curve, poor fit]

Biological target: Aromatase (Homo sapiens) (UniProt P11511)
Experiment: qHTS assay to identify aromatase inhibitors (AID 743083); further: nearly all actives have a fitted effect of over 55% in size
Settings: MCF-7 aro ERE, testosterone-driven ERE luciferase, 24 h; series mostly up to 70.3 µM

UniProt P11511, sequence (P11511 whole entry, looked up): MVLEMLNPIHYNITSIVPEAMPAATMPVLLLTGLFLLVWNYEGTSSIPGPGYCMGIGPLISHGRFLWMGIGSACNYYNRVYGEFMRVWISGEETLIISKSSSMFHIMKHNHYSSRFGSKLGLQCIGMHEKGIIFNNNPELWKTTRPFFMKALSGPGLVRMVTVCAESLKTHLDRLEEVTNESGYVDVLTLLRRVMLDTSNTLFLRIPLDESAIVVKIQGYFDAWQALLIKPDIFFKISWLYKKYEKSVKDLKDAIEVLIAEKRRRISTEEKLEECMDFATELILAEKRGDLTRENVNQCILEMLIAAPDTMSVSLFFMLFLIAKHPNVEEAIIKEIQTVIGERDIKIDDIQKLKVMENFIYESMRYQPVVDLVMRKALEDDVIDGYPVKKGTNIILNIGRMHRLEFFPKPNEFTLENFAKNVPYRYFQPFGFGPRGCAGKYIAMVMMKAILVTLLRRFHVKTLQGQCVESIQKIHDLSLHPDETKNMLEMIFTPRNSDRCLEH

Question: For `CCCCCCOc1cc(C)c(O)c(C)c1C`, which Potency is on record?
Answer: active: 43.8 µM

Question: With `O=C(Nc1ccccc1SSc1ccccc1NC(=O)c1ccccc1)c1ccccc1` as the compound, how does the Potency read?
Answer: active: 13.8 µM and active: 27.3 µM

Question: Which Potency does the source give for `CCCCCCCCCCCCCOP(=O)(O)O` here?
Answer: inconclusive: 10.9 µM [inhibitor, partial curve, poor fit]

Question: With `BrC1CCC(Br)C(Br)CCC(Br)C(Br)CCC1Br` (stereo unspecified) as the compound, how does the Potency read?
Answer: inconclusive: 60.9 µM [inhibitor, partial curve] and inconclusive: 58 µM [inhibitor, partial curve]

Question: For `COc1ccc(-c2ccc3cc(C(=O)O)ccc3c2)cc1C12CC3CC(CC(C3)C1)C2`, which Potency is on record?
Answer: inconclusive: 0.0133 µM [inhibitor, full curve]

Test system: not listed separately
Experiment: qHTS assay to identify aromatase inhibitors - cell viability counter screen (AID 743084);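 further: cells stimulated with testosterone during compound exposure; nearly all actives have a fitted effect of over 55% in size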; on activity change, negative = cytotoxicity: on the % scale 0 is the no-effect control and ±100 the full control effect
Settings: MCF-7 aro ERE viability, CellTiter-Fluor, 24 h; activity change, negative = cytotoxicity: at 70.3 µM (top of the series) unless noted

Question: Which Potency does the source give for `CCCCCCOc1cc(C)c(O)c(C)c1C` here?
Answer: active: 49.2 µM

Question: Which Potency does the source give for `O=C1CN(/N=C/c2ccc([N+](=O)[O-])o2)C(=O)N1` here?
Answer: inconclusive: 29.8 µM [cytotoxic, partial curve]

Question: And the activity change, negative = cytotoxicity?
Answer: inconclusive: -35.8% [cytotoxic]

Question: With `CC(=O)OC/C=C(C)/C=C/C=C(C)/C=C/C1=C(C)CCCC1(C)C` as the compound, how does the Potency read?
Answer: active: 66.9 µM and active: 61.1 µM

Question: Which Potency does the source give for `OCCO` here?
Answer: inactive

Question: For `O=C(OCC1CCC2OC2C1)C1CCC2OC2C1` (stereo unspecified), which Potency is on record?
Answer: inconclusive: 71.8 µM [cytotoxic, partial curve]

Question: With `O=C1Cc2cc(CCN3CCN(c4nsc5ccccc45)CC3)c(Cl)cc2N1` as the compound, how does the Potency read?
Answer: active: 26.6 µM

Question: For `BrC1CCC(Br)C(Br)CCC(Br)C(Br)CCC1Br` (stereo unspecified), which Potency is on record?
Answer: inconclusive: 38.4 µM [cytotoxic, partial curve] and inconclusive: 58 µM [cytotoxic, single point]

Question: Which Potency does the source give for `NC(=O)N/N=C/c1ccc([N+](=O)[O-])o1` here?
Answer: inactive and inconclusive: 21.7 µM [cytotoxic, full curve]

Question: For `O=C(c1ccc(O)cc1O)c1ccc(O)cc1O`, which Potency is on record?
Answer: inactive
